Experimental data taken from PubChem BioAssay AID1963576 (National Center for Advancing Translational Sciences (NCATS), 2024).
Out of some 46,000 compounds screened, about 60 (0.1%) were called active. About 3% were inconclusive and are not listed. Calls follow the shape of the dose curve; as a rule, active = well fitted inhibition curve with a large enough effect; inconclusive = small, poorly fitted or top-dose-only effect; inactive = no such curve, though single readings can be large or run the other way. This is one part of the list.

Assay: Primary qHTS assay for Inhibitors of ovarian cancer metastasis using an organotypic tumor microenvironment (TME) model. Also: nearly all actives have a fitted effect of over 65% in size.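 As to activity change, negative = inhibition: plate controls were DMSO wells for no effect and tomatine positive control wells for full effect.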
Conditions: SKOV3ip1-GFP adhesion/invasion on 3D omental model, fluorescence; series mostly up to 45.8 µM; activity change, negative = inhibition: at the top concentration
Outline: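 Adhesion/invasion was scored as fixed GFP-labeled SKOV3ip1 cell counts (488/509 nm), normalized to DMSO and tomatine controls. Cancer cells in serum-free medium, with four compound doses (0.36-46 umol/L), sat 2 hr at RT then 16 hr at 37 C on a 48 hr fibroblast/mesothelial/ECM culture.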

Activity change, negative = inhibition, inactive:
CCOc1ccc(CCNC(=O)CCc2cn(Cc3ccc(F)cc3)c3ccccc23)cc1 -8.84%
COc1cccc(NC(=O)C(Cc2ccccc2)NS(=O)(=O)c2ccc3c(c2)oc(=O)n3C)c1 (stereo not given) 0.94%
Cc1ccc(N2C(=O)CSC23C(=O)N(CC(=O)Nc2ccc(C(C)C)cc2)c2ccccc23)cc1C (stereo not given) 22.5%
CC(=O)c1cccc(NC(=O)c2noc3c2CCCC3)c1 31.5%
CCc1ccccc1N(C)C(=O)c1cc2c(=O)oc3ccccc3c2s1 0.79%
Cc1ccc(C)c(CN2C(=O)c3ccccc3S(=O)(=O)c3ccc(C(=O)N4CCCCC4)cc32)c1 6.45%
CC(C)n1c(=N)c(C(=O)NCc2ccccc2)cc2c(=O)n3ccccc3nc21 0.336%
COc1ccc(C)cc1NC(=O)N1CCCn2nc(C)cc21 5.11%
CCCCCOC(=O)Nc1nc(=O)n([C@@H]2O[C@H](C)[C@@H](O)C2O)cc1F (stereo not given in full) 4.72%
O=C(COc1ccccc1[N+](=O)[O-])N(Cc1ccco1)c1ccccn1 -7.44%
CC(C)CC(=O)Nc1c(C(=O)N2CCN(c3ccccc3)CC2)oc2ccccc12 -5.74%
COC(=O)c1ccccc1NC(=O)N1CCc2c(sc3c2CCCC3)C1c1ccc(F)cc1 (stereo not given) -22.2%
O=C(COc1ccccc1)NC1CC(=O)N(c2ccc3c(c2)OCCO3)C1 (stereo not given) 13.2%
COc1ccc(C2C=C(c3ccccc3)Nc3nc(NS(=O)(=O)c4ccc(Cl)cc4)nn32)cc1 (stereo not given) -13.5%
CC(=O)c1cc2c(cc1N/C(=N/S(=O)(=O)c1ccc(Br)cc1)c1ccccc1)OCO2 2.88%
COc1ccc(OC)c(NC(=O)/C=C/c2ccc(C)o2)c1 -0.469%
CCc1cccc(C)c1NC(=O)c1cccc(C(=O)Nc2c(C)cccc2CC)c1 -8.74%
CCOc1ccc(Nc2nc(-c3c(C)nc4ccccn34)cs2)cc1 12.1%
CCOc1ccc(C(=O)c2cn(CC(=O)Nc3ccc(Cl)cc3)c3cc4c(cc3c2=O)OCCO4)cc1 -0.923%
Cc1ccc(C)c(N2CCN(C(=O)c3noc4c3CCCCC4)CC2)c1 0.916%
Cc1ccccc1Cn1c(CN2CCCC(C)C2)nc2c1c(=O)n(C)c(=O)n2C (stereo not given) 7.22%
Cc1ccc(C)c(N2CCN(C(c3ccccc3)c3nnc(-c4ccccc4F)o3)CC2)c1 (stereo not given) -11%
O=C(CCc1nc(-c2cccs2)no1)Nc1cccc([N+](=O)[O-])c1 9.83%
CCOc1ccc(-c2ccc(NS(=O)(=O)c3ccc(C)cc3)cc2)nn1 -1.07%
COc1ccc(CCCc2nnc(SCC(=O)Nc3ccc(C)cc3)o2)cc1 -3.47%
Cc1ccc(C(=O)Nc2ccc(NC(=O)c3cccs3)cc2)cc1C -1.43%
Cc1c[nH]c(C=C2C(=O)Nc3ccccc32)c1CCC(=O)O -0.521%
Cc1cc(Cl)ccc1NC(=O)C(=O)NCc1ccco1 -5.2%
CCc1cc(C(C)=NOCc2ccc(C3CCCCC3)c(C(F)(F)F)c2)ccc1CN1CC(C(=O)O)C1 -2.64%
CCOc1ccc(Sc2cc(C(=O)NC(C)c3ccccc3)c3ccccc3n2)cc1 (stereo not given) -14.2%
Cc1ccc(OCC(=O)Nc2cc3nn(-c4ccccc4)nc3cc2C)cc1 -5.96%
Cc1ccsc1CN(C(=O)COc1ccc(Br)cc1)C1CCS(=O)(=O)C1 (stereo not given) -1.37%
Cc1ccc(C(=O)Nc2sc3c(c2C(=O)NCc2ccco2)CCC(C(C)(C)C)C3)cc1 (stereo not given) -8.41%
O=C(NCc1ccc(F)cc1)c1cc2n(n1)CCCN(Cc1ccc(F)cc1)C2=O 5.51%
Cc1cc(C)c(NC(=O)Cn2c(=O)n(-c3ccc(CC(=O)NCC4CCCO4)cc3)c(=O)c3ccccc32)c(C)c1 (stereo not given) 109%
Cc1ccc(NC(=O)Cn2cnc3sc(C(=O)O)c(C)c3c2=O)cc1Cl 1.25%
O=C(CSc1nnc(CNC(=O)c2cccc(F)c2)n1-c1ccccc1)Nc1ccccc1F 14.1%
CN[C@@H](C)C(=O)N[C@H]1CN(C(=O)CC(C)C)CC[C@H]2CC[C@@H](C(=O)NC(c3ccccc3)c3ccccc3)N2C1=O -5.23%
COc1cc(NC(=O)CN(c2ccc(C)cc2)S(=O)(=O)c2cccc3nonc23)cc(OC)c1 -20.2%
CCOc1ccccc1C(=O)Nc1ccc(S(=O)(=O)Nc2nc(C)cc(C)n2)cc1 9.85%
Cc1ccc2nc(NC(=O)COc3ccc(F)cc3)sc2c1 3.53%
Cc1c(CCNC(=O)c2ccc(Br)o2)sc2nc(-c3ccc(F)cc3)nn12 -15.4%
CCc1nn(CC(=O)NCCc2ccc(OC)cc2OC)c(=O)c2cc3c(OC)cccc3n12 -5.5%
CCOc1cc(CNC(=O)C2COc3ccccc3C2)cc(OCC)c1OCC (stereo not given) 2.22%
COc1ccc2c(c1)c1c(c(=O)n(Cc3ccccc3)c(=O)n1CC(=O)NCc1ccccc1Cl)n2C -3.45%
CCCCCn1c(C(C)NC(=O)c2ccccc2)nc2ccccc21 (stereo not given) 11.7%

outcome, inactive:
COc1ccc(-n2nc(C(=O)Nc3cccc(C)n3)c3c4ccccc4n(C)c3c2=O)cc1Cl
Cc1coc2cc3oc(=O)c(CC(=O)NCCc4ccccc4)c(C)c3cc12
COc1ccc(OC)c(NC(=O)c2cnn(-c3ccc(C)cc3)c2C2CCNCC2)c1
COc1cc(NC(=O)c2cc(S(=O)(=O)N3CCc4ccccc43)cn2C)cc(OC)c1OC
O=C(C1CCC1)N1CCc2cc(S(=O)(=O)NCc3ccc(F)cc3)ccc21
O=C(Cn1c(=O)n(CC2CCC(C(=O)NCCc3ccccc3)CC2)c(=O)c2ccccc21)Nc1cccc(F)c1 (stereo not given)
COc1ccc(C(=O)Cn2c(=O)c(-c3cc(C)ccc3NC(C)=O)nc3ccccc32)cc1
Cc1ccc(-c2nc3n(n2)C(=O)CC(c2ccc(Cl)cc2)S3)cc1 (stereo not given)
Cc1ccc(OCC(=O)OCc2cc(=O)n3nc(-c4cccs4)sc3n2)cc1C
CCN1CCN(c2nc3c(S(=O)(=O)c4ccc(Br)cc4)nnn3c3ccsc23)CC1
O=C(Cn1c(=O)c2cccn2c2ccccc21)NCCc1ccccc1
CCOc1ccccc1NC(=O)Cn1cc(C(=O)c2cccc(OC)c2)c(=O)c2ccc(C)nc21
COc1ccc(NC(=O)Cn2c(SCc3cc(C)ccc3C)nc3ccncc32)c(OC)c1OC
COc1ccc2c(CNCc3cccs3)c(C(=O)O)n(Cc3ccccc3)c2c1
